{"source": "PubChem BioAssay AID588591", "about": "(National Center for Advancing Translational Sciences (NCATS), 2011)", "note": "In all, about 390,000 compounds went through this assay and about 4,700 (1.2%) were called active. Inconclusive results, whose numbers are uncertain, are shown with a selection of clear calls. Calls come from the whole dose curve; as a rule, active = well fitted inhibition curve with a large enough effect; inconclusive = small, poorly fitted or top-dose-only effect, or another doubt; inactive = no such curve, though single readings can be large or run the other way. Potencies of inconclusive entries are doubtful fits and often do not repeat. % is set by controls: 0 for no effect and ±100 for the full control effect; potency is the fitted concentration of half-maximal effect; tags give direction and shape of the fitted curve.", "data": [{"target": "DNA polymerase eta (Homo sapiens) (UniProt Q9Y253)", "sequence (Q9Y253 whole entry, looked up)": "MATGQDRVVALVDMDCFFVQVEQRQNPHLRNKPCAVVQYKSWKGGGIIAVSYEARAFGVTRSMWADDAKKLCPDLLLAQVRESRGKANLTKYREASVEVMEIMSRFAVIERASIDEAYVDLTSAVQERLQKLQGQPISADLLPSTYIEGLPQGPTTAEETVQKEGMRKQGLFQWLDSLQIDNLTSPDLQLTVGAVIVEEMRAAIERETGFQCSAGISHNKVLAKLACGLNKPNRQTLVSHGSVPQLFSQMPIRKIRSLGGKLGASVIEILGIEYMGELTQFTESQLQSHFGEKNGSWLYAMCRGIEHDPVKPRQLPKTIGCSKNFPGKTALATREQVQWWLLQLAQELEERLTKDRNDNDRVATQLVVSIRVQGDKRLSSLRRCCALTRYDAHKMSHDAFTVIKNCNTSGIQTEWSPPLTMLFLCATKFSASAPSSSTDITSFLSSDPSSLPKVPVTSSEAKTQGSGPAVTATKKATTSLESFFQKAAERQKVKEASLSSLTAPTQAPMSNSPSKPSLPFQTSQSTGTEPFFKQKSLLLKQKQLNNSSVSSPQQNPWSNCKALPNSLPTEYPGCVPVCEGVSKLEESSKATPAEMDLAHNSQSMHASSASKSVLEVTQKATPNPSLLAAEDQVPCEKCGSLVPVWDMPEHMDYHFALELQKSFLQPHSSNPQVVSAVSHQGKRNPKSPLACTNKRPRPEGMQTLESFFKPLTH", "assay": "qHTS for Inhibitors of Polymerase Eta", "details": "recombinant Pol eta, fluorescent DNA replication assay; series mostly up to 114 µM; activity change, negative = inhibition: at the top concentration", "procedure,_shortened": "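Pol eta (10 nM) was preincubated with compounds for 15 min at room temperature, after which fluorescent replication substrate (50 nM final) was added to start the reaction. Fluorescence was read kinetically at 0 and 10 min.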", "values": [{"smiles": "Cc1nn(CC(=O)Nc2ccc3c(c2)nc(CN2CCCC2)n3C)c(=O)c2ccccc12", "Potency": "inconclusive: 89.1 µM [inhibitor, single point]"}, {"smiles": "CN(C)S(=O)(=O)c1ccc(C(=O)OCC(=O)c2csc(N3CCCCC3)n2)cc1", "Potency": "active: 79.4 µM"}, {"smiles": "COc1cc(/C=C(/C(=O)c2cccs2)c2nc3ccccc3[nH]2)cc(OC)c1O", "Potency": "inconclusive: 7.94 µM [inhibitor, partial curve, poor fit]"}, {"smiles": "Cc1cc(OCC(=O)Nc2sc3c(c2C#N)CC(C)(C)NC3(C)C)c(C(C)C)cc1Cl", "Potency": "inconclusive: 28.2 µM [inhibitor, partial curve, poor fit]"}, {"smiles": "Cc1ccc(N(C(=O)c2snc(C(N)=O)c2N)C(C(=O)NCC2CCCO2)c2c[nH]c3ccccc23)cc1", "note": "(stereo not drawn)", "Potency": "inconclusive: 79.4 µM [inhibitor, partial curve, poor fit]"}, {"smiles": "Nc1c(/C=C2/C=CC(=O)C(O)=C2)c(=O)nc2sc(CC(=O)N3CCCC3)nn12", "Potency": "active: 3.98 µM"}, {"smiles": "CCOC(=O)c1c(C)oc2c1c(C=NCc1ccccn1)c(O)c1ccccc12", "Potency": "inconclusive: 44.7 µM [inhibitor, partial curve, poor fit]"}, {"smiles": "CC(C)c1ccc(NC(=O)C2CCCN(S(=O)(=O)c3cccc4nsnc34)C2)cc1", "note": "(stereo not drawn)", "activity change, negative = inhibition": "inactive: -1.42%"}, {"smiles": "CN(CCc1ccccc1)C(=O)c1ccc(NC(=O)Cc2ccc(NC(=O)C3CCN(C(=O)C4CCC4)CC3)cc2)cc1", "activity change, negative = inhibition": "inactive: -23.5%"}, {"smiles": "CCOC(=O)C1=C(O)/C(=C/c2ccc(-c3ccccc3C(=O)O)o2)SC1=Nc1ccc(OC)cc1", "Potency": "active: 10 µM"}, {"smiles": "CC1CCN(c2ccc(C(=O)Nc3ccc4c(c3)OCO4)cc2[N+](=O)[O-])CC1", "Potency": "inconclusive: 89.1 µM [inhibitor, partial curve, poor fit]"}, {"smiles": "COC(=O)c1ccc(/C=C/C(=O)c2cccc(OC)c2)cc1", "Potency": "inconclusive: 22.4 µM [inhibitor, full curve, poor fit]"}, {"smiles": "CC1=NN(c2ccccc2)C(=O)/C1=C/c1c(O)n(-c2ccc(F)cc2)[nH]c1=O", "Potency": "inconclusive: 15.8 µM [inhibitor, full curve, poor fit]"}, {"smiles": "O=[N+]([O-])c1cc2oc3c(c2c(C=NCc2ccncc2)c1O)CCCC3", "Potency": "inconclusive: 14.1 µM [inhibitor, full curve, poor fit]"}, {"smiles": "NC(=O)c1ccc(N2CCCCC2)c(N2C(=O)C3C4C=CC(C4)C3C2=O)c1", "note": "(stereo not drawn)", "Potency": "inconclusive: 31.6 µM [inhibitor, partial curve, poor fit]"}, {"smiles": "COc1cc(/C=C(\\C#N)c2nc(-c3cc4ccccc4oc3=O)cs2)ccc1O", "Potency": "inconclusive: 2.51 µM [inhibitor, full curve, poor fit]"}, {"smiles": "CCOc1cc(N2CCOCC2)c(OCC)cc1NC1=NCCCCC1", "Potency": "inconclusive: 22.4 µM [inhibitor, partial curve, poor fit]"}, {"smiles": "Clc1ccccc1CSc1nnc(-c2ccco2)c(-c2ccco2)n1", "Potency": "active: 25.1 µM"}, {"smiles": "CCOc1ccc(Nc2nc(C)c(NC(=O)c3ccc(C)cc3)c(Nc3ccc(OCC)cc3)n2)cc1", "activity change, negative = inhibition": "inactive: -12.8%"}, {"smiles": "CCOc1cc(N2CCOCC2)c(OCC)cc1NC(=O)COC(=O)c1c(CC)noc1C", "activity change, negative = inhibition": "inactive: 1.44%"}, {"smiles": "CC(NC(=O)/C(C#N)=C/c1ccc(OCC(=O)O)cc1)c1ccccc1", "note": "(stereo not drawn)", "Potency": "active: 17.8 µM"}, {"smiles": "NS(=O)(=O)c1ccc(N=Nc2ccc(=O)[nH]c2O)cc1", "Potency": "active: 10 µM"}, {"smiles": "Cc1ccccc1NC(=O)C(=O)NCC1(c2ccccc2)CCCC1", "activity change, negative = inhibition": "inactive: -16.8%"}, {"smiles": "O=C1NC(=O)/C(=C/c2ccc(-c3cc(C(=O)O)ccc3Cl)o2)S1", "Potency": "active: 20 µM"}, {"smiles": "CSc1nc(Nc2ccc(C)cc2)c(C#N)c(-c2ccccc2)n1", "activity change, negative = inhibition": "inactive: -13.1%"}, {"smiles": "c1ccc(COc2ccc(OCCCN3CCCC3)cc2)cc1", "Potency": "inconclusive: 3.55 µM [inhibitor, partial curve, poor fit]"}, {"smiles": "O=C(Cc1cccs1)NCc1cccnc1", "Potency": "inconclusive: 35.5 µM [inhibitor, partial curve, poor fit]"}, {"smiles": "COc1cc(/C=N/NC(=O)c2ccc3c(c2)OCCO3)c(Br)c(Br)c1O", "Potency": "inconclusive: 50.1 µM [inhibitor, partial curve]"}, {"smiles": "Cc1cccn2c(=O)c3cc(C(=O)NCc4cccnc4)c(=N)n(CC4CCCO4)c3nc12", "note": "(stereo not drawn)", "Potency": "inconclusive: 100 µM [inhibitor, partial curve, poor fit]"}, {"smiles": "O=C(/C=C\\c1ccc(-c2ccccc2)o1)c1ccccc1", "Potency": "inconclusive: 44.7 µM [inhibitor, partial curve, poor fit]"}, {"smiles": "COc1cc(-c2nc(-c3ccccc3)c(-c3cc([N+](=O)[O-])ccc3C)[nH]2)cc(OC)c1OC", "Potency": "inconclusive: 39.8 µM [inhibitor, partial curve, poor fit]"}, {"smiles": "CCOc1ccccc1NC(=O)c1cc2cc(C)ccc2n1C", "activity change, negative = inhibition": "inactive: -29.1%"}, {"smiles": "COc1cccc2sc(Nc3nc(-c4cc5ccccc5oc4=O)cs3)nc12", "Potency": "inconclusive: 2.82 µM [inhibitor, full curve, poor fit]"}, {"smiles": "O=C(NCCc1ccc(Cl)cc1)c1ccc(Cn2c(=O)[nH]c3ccccc3c2=O)cc1", "Potency": "inconclusive: 17.8 µM [inhibitor, partial curve, poor fit]"}, {"smiles": "COc1cc(/C=C(/C#N)c2nc3ccccc3[nH]2)ccc1OCC(=O)Nc1ccccc1C", "Potency": "inconclusive: 2.24 µM [inhibitor, full curve]"}, {"smiles": "Cc1cc(N2C(=O)C(O)=C(C(=O)c3cc4ccccc4o3)C2c2ccc(Cl)cc2)no1", "note": "(stereo not drawn)", "activity change, negative = inhibition": "inactive: -21.9%"}, {"smiles": "CCCCn1c(N)c(N(CC(C)C)C(=O)c2ccc(C)o2)c(=O)[nH]c1=O", "activity change, negative = inhibition": "inactive: -16.1%"}, {"smiles": "CC(C)(C)OC(=O)[C@H](CCCCN)NC(=O)c1[nH]cnc1C(=O)N[C@@H](Cc1ccccc1)C(=O)OCc1ccccc1", "Potency": "inconclusive: 50.1 µM [inhibitor, partial curve, poor fit]"}, {"smiles": "CS(=O)(=O)Oc1ccc(/C=C2\\C(=N)N3N=C(CC(=O)N4CCOCC4)SC3=NC2=O)cc1Cl", "activity change, negative = inhibition": "inactive: -17.1%"}, {"smiles": "Cc1ccc(OCC(=O)Nc2ccc3c(c2)nc2n3CCOC2)cc1", "Potency": "inconclusive: 35.5 µM [inhibitor, partial curve, poor fit]"}, {"smiles": "CC1OC(OCC2OC(Oc3c(-c4ccc(O)cc4)oc4cc(O)cc(O)c4c3=O)C(O)C(O)C2O)C(O)C(O)C1O", "note": "(stereo not drawn)", "Potency": "active: 10 µM"}, {"smiles": "COc1ccc2nc3ccccc3nc2c1NC(=O)c1ccc(Br)cc1", "Potency": "inconclusive: 31.6 µM [inhibitor, partial curve, poor fit]"}, {"smiles": "CCOC(=O)C1=C(C)OC(N)=C(C#N)C1c1cncc(-c2ccc(F)cc2)c1", "note": "(stereo not drawn)", "activity change, negative = inhibition": "inactive: -10.5%"}, {"smiles": "O=C(N/N=C/c1ccc([N+](=O)[O-])o1)c1cn(-c2ccccc2)nc1-c1ccc(Cl)cc1", "activity change, negative = inhibition": "inactive: 8.21%"}, {"smiles": "CCOC(=O)N1CCN(C(=O)COc2cccc3c2CCN(Cc2cccc(C)c2)C3=O)CC1", "Potency": "inconclusive: 79.4 µM [inhibitor, partial curve, poor fit]"}, {"smiles": "CC1=Nc2ccccc2/C1=C/c1c(N)n2c(S(=O)(=O)C(C)C)nsc2nc1=O", "Potency": "inconclusive: 35.5 µM [inhibitor, full curve]"}, {"smiles": "COc1ccc(-c2cc(C)no2)cc1S(=O)(=O)Nc1c(C)cc(C)cc1C", "activity change, negative = inhibition": "inactive: 9.96%"}, {"smiles": "O=C(O)C1Cc2ccccc2CN1S(=O)(=O)c1ccccc1", "note": "(stereo not drawn)", "Potency": "active: 79.4 µM"}, {"smiles": "Cc1ccc(OCC(=O)NNC(=O)CSc2ncnc3sc(C)c(C)c23)cc1", "Potency": "inconclusive: 28.2 µM [inhibitor, single point]"}, {"smiles": "Cc1ccc(-c2nn(CC(=O)Nc3ccc4c(c3)nc3n4CCOC3)c(=O)c3ccccc23)cc1", "Potency": "inconclusive: 28.2 µM [inhibitor, partial curve, poor fit]"}, {"smiles": "O=C(NCc1ccco1)[C@@H]1CSC2c3ccccc3C(=O)N21", "note": "(stereo partly drawn)", "Potency": "active: 14.1 µM"}, {"smiles": "COc1ccc(C(=O)Cc2nnc(C)s2)cc1", "Potency": "inconclusive: 22.4 µM [inhibitor, partial curve, poor fit]"}, {"smiles": "O=c1nc(N2CCCC2)nc(N2CCCC2)[nH]1", "activity change, negative = inhibition": "inactive: -2.57%"}, {"smiles": "O=C(N/N=C/c1ccc2c(c1)OCO2)c1cc(-c2ccncc2)nc2ccccc12", "Potency": "inconclusive: 39.8 µM [inhibitor, partial curve, poor fit]"}, {"smiles": "CN(C)c1ccc(O)c2c1CC1CC3[C@@H](N(C)C)C(=O)C(C(N)=O)=C(O)[C@]3(O)C(=O)C1=C2O", "note": "(stereo partly drawn)", "Potency": "inconclusive: 89.1 µM [inhibitor, single point]"}, {"smiles": "COc1ccc(C)cc1NC(=O)CSc1nnc(-c2ccccn2)n1Cc1ccco1", "Potency": "inconclusive: 15.8 µM [inhibitor, partial curve, poor fit]"}, {"smiles": "O=C(O)c1cc2ncc(-c3[nH]ncc3[N+](=O)[O-])cn2n1", "Potency": "inconclusive: 35.5 µM [inhibitor, full curve]"}, {"smiles": "CCOc1ccc(C(=O)NCC(=O)NNC(=O)CN(C)S(=O)(=O)c2ccc(Cl)cc2)cc1OCC", "Potency": "inconclusive: 0.562 µM [inhibitor, full curve, poor fit]"}, {"smiles": "Cc1cc(Nc2ccccc2)nc(-c2ccccc2O)n1", "Potency": "inconclusive: 35.5 µM [inhibitor, partial curve, poor fit]"}, {"smiles": "Cc1ccc(OCC(=O)NNC(=O)Cc2ccc(S(=O)(=O)N3CCOCC3)s2)cc1", "Potency": "inconclusive: 31.6 µM [inhibitor, partial curve, poor fit]"}, {"smiles": "CC12CCC(C(=O)N(NC(=O)c3ccccc3O)C1=O)C2(C)C", "note": "(stereo not drawn)", "Potency": "inconclusive: 0.631 µM [inhibitor, full curve, poor fit]"}, {"smiles": "COc1cccc(CN(C)CC(=O)NNC(=O)c2ccc(Cl)cc2)c1", "Potency": "inconclusive: 70.8 µM [inhibitor, partial curve, poor fit]"}, {"smiles": "O=C(O)CCc1ccc(-c2ccccc2)n1CC(=O)O", "activity change, negative = inhibition": "inactive: 0.686%"}]}]}
